According to PubChem BioAssay AID686978 (National Center for Advancing Translational Sciences (NCATS), 2013):
“And” between values parts separate entries of the source, which are not always exact repeats. Equal entries are not always repeated. Screen size: about 420,000 compounds; about 64,000 (15%) were called active. Inconclusive results, whose numbers are uncertain, are shown with a selection of clear calls. Calls come from the whole dose curve; as a rule, active = well fitted inhibition curve with a large enough effect; inconclusive = small, poorly fitted or top-dose-only effect; inactive = flat fitted curve, though single readings scatter. No potency is given beside an inconclusive call; the fits are too rough.

Assay: qHTS for Inhibitors of human tyrosyl-DNA phosphodiesterase 1 (TDP1): qHTS in cells in absence of CPT; note: nearly all actives have a fitted effect of over 55% in size
Details: DT40 Tdp1-/- hTDP1 cells, no CPT, ATP luminescence, 48 h; activity change, negative = growth inhibition: at 46.2 µM (top of the series) unless noted
Summary of the method: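 Stably hTDP1-transfected Tdp1-null chicken DT40 cells were treated with library compounds minus camptothecin and grown for at least 48 hr at 37 °C, after which cellular ATP was quantified by luminescence.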
% is set by controls: 0 for no effect and ±100 for the full control effect; potency is the fitted concentration of half-maximal effect; tags give direction and shape of the fitted curve.

SMILES | Potency | activity change, negative = growth inhibition
Clc1ccc(SCCOCCN2CCOCC2)cc1 | inconclusive [inhibitor, partial curve] | –
O=C(Nc1ccc(OC(F)F)c(Cl)c1)C(c1ccccc1)c1ccccc1 | active: 18.4 µM | –
CSc1ccccc1OCc1cc(C(=O)N(C)CCc2c(C)n[nH]c2C)no1 | – | inactive: -25.5%
O=S(=O)(N1CCCCC1)N1CCN(S(=O)(=O)N2CCCCC2)CC1 | – | inactive: 13.9%
NC(=O)c1ccc2nc(-c3ccccc3)c(-c3ccccc3)nc2c1 | – | inactive: -27%
COc1ccc(Cl)cc1NC(=O)NNC(=O)C(=O)Nc1ccc(F)cc1 | – | inactive: 12.9%
COc1ccccc1-c1cn[nH]c1-c1ccc(OCc2ccc(F)cc2)cc1O | inconclusive [inhibitor, single point] | –
Cc1ccccc1-c1csc(C(O)c2ccc(F)cc2)n1 (stereo not drawn) | inconclusive [inhibitor, single point] | –
Cc1ccc(NC(=O)c2c(NC(=O)CCC(=O)O)sc3c2CCCCC3)cc1 | inconclusive [inhibitor, single point] | –
CCCCn1nc2cc(C(=O)NCc3ccc(OC(F)(F)F)cc3)ccc2c1OC | – | inactive: -4.87%
CSc1nnc(C)c(=O)n1COC(=O)/C=C/c1ccccc1 | – | inactive: -26.1%
Cc1ccc(S(=O)(=O)N2CCCCC2)cc1NC(=O)COC(=O)Cc1cccc2ccccc12 | inconclusive [inhibitor, single point] | –
COc1cccc(C(c2nnnn2CCc2ccccc2)N2CCN(c3ccccc3)CC2)c1OC (stereo not drawn) | inconclusive [inhibitor, single point] | –
COc1ccc(-n2c(COc3cccc4ccccc34)nnc2SCC(=O)NCc2ccco2)cc1 | inconclusive [inhibitor, single point] | –
c1ccc(COc2ccc(-c3cc4nc(NCCOc5ccccc5)ccn4n3)cc2)cc1 | inconclusive [inhibitor, single point] | –
COC(=O)c1sc(NC(=S)NC(=O)c2cccc(Br)c2)nc1C | inconclusive [inhibitor, partial curve] | –
COC(=O)Nc1nnc(/C=C/c2ccc(OC)cc2)s1 | inconclusive [inhibitor, single point] | –
Oc1c(Cl)cc(Cl)cc1/C=N/c1ncn[nH]1 | inconclusive [inhibitor, single point] | –
Cc1ccc(Sc2ccc(C(=O)N3CCOCC3)cc2[N+](=O)[O-])cc1 | inconclusive [inhibitor, partial curve] | –
O=C(COC(=O)c1ccc2c(c1)OCCO2)NCCc1ccccc1 | – | inactive: -3.92%
COc1ccc(CNC(=O)c2ccc(CN3C(=O)C(C)=C(c4ccc(C)cc4)S3(=O)=O)cc2)cc1 | inconclusive [inhibitor, single point] | –
O=C(CCl)Nc1ccc(N2CCCCCC2)cc1 | active: 8.2 µM | –
CN(C)C(=S)NC(=S)Nc1ccc2ccccc2c1 | inconclusive [inhibitor, single point] | –
Cc1ccc(Cl)cc1N1CCN(c2nc3ccc(C(=O)c4ccccc4)cc3n3cnnc23)CC1 | active: 23.1 µM | –

SMILES | Potency | activity change, negative = growth inhibition
O=C1NN=C2CCCCCCC12 (stereo not drawn) | – | inactive: -11.1%
COC(=O)c1ccc(-n2nnnc2SCC(=O)Nc2ccccc2OC)cc1 | inconclusive [inhibitor, single point] | –
Cc1c(Cl)cccc1NC(=S)NCc1ccc2c(c1)OCO2 | – | inactive: -27.6%
O=C(CN(CC1CCCO1)C(=O)CNS(=O)(=O)c1ccc(F)cc1)NC1CCCCC1 (stereo not drawn) | inconclusive [inhibitor, single point] | –
Cn1c(N)c(C(=O)CSc2nnc(Cc3cccs3)n2C2CC2)c(=O)n(C)c1=O | – | inactive: -13.8%
COc1cccc(C(=O)NC2CC3CCCC(C2)N3Cc2ccc(C)cc2)c1 (stereo not drawn) | inconclusive [inhibitor, single point] | –
CCc1nc2c(OCc3ccc(C#N)cc3)cccn2c1N(C)C(=O)c1cccs1 | – | inactive: -20.6%
CCOC(=O)c1nn(-c2ccc(OCC)cc2)c2nc(-c3ccco3)c(C#N)c(=O)n12 | active: 23.1 µM | –
Cc1ccc(C2N(c3ccccc3)C(=S)N3CCCN23)cc1 (stereo not drawn) | inconclusive [inhibitor, partial curve] | –
CC(C)[C@@H]1CC[C@@H](C)C[C@H]1O | – | inactive: -17.7%
N#C/C(=C\c1ccccc1F)c1nc2ccccc2c(=O)[nH]1 | – | inactive: -10.4%
CN(c1ccccc1)S(=O)(=O)c1cc(C(=O)N2CCN(c3ccccn3)CC2)ccc1Cl | active: 7.31 µM | –
CCNC(=O)C1(C)CCN(C(=O)c2cc(F)ccc2C)C1 (stereo not drawn) | – | inactive: -6.57%
CC1=C(C(=O)N2CCCCCC2)CC(CC(=O)NC2CCCCC2)C(=O)N1Cc1ccc(C(C)(C)C)cc1 (stereo not drawn) | active: 20.6 µM | –
COc1ccc(C2CC(c3cccs3)=NN2C(=O)COC(=O)c2cc3ccccc3cc2O)cc1OC (stereo not drawn) | inconclusive [inhibitor, single point] | –
Cc1cc(C)cc(NS(=O)(=O)c2ccc3[nH]cc(C(=O)NCc4ccco4)c(=O)c3c2)c1 | active: 9.2 µM and active: 14.6 µM | –
CC(C)C1C(=O)N(Cc2cn(Cc3ccco3)nn2)CCS(=O)(=O)N1Cc1ccc(-c2ccc(F)cc2)cc1 (stereo not drawn) | active: 20.6 µM | –
CN(CCC1CCOCC1)C(=O)c1cc(COc2c(F)cccc2F)on1 | – | inactive: 1.29%
O=C(Nc1cccc(-n2cnnn2)c1)c1cc(Cl)ccc1Cl | – | inactive: -12.6%
CCCn1ccc2c(OCC(=O)Nc3ccc(C(F)(F)F)cc3)cccc2c1=O | inconclusive [inhibitor, full curve, poor fit] | –
Nc1ccc2oc3ccccc3c2c1 | inconclusive [inhibitor, single point] | –
CCOC(=O)c1c(C)nc2c(c1-c1ccccc1)C(=O)CCC2 | inconclusive [inhibitor, full curve, poor fit] | –
Cc1cc(C)n(CC(C)NC(=O)c2cc(COc3ccc(F)c(F)c3)on2)n1 (stereo not drawn) | active: 16.4 µM | –
COC(=O)C1=C(C(=O)OC)[C@@H]2Nc3ccccc3[C@@]23C[C@@H](C(=O)OC)N(C(=O)NC2CCCCC2)C3=N1 | – | inactive: -22.7%
